Experimental data published in publication PMC4336329 (PLoS ONE, 2015).
Out of some 310,000 compounds screened, about 2,200 (0.71%) showed an effect of 50% or more. The effect is printed as a negative number. Some of the results follow.

What follows are molecules tested against human ether-à-go-go-related gene (hERG) potassium channel (human, UniProt Q12809) (assay: primary screen, population patch clamp on CHO cells stably expressing hERG).
Sequence of human ether-à-go-go-related gene (hERG) potassium channel (Q12809 whole entry, looked up): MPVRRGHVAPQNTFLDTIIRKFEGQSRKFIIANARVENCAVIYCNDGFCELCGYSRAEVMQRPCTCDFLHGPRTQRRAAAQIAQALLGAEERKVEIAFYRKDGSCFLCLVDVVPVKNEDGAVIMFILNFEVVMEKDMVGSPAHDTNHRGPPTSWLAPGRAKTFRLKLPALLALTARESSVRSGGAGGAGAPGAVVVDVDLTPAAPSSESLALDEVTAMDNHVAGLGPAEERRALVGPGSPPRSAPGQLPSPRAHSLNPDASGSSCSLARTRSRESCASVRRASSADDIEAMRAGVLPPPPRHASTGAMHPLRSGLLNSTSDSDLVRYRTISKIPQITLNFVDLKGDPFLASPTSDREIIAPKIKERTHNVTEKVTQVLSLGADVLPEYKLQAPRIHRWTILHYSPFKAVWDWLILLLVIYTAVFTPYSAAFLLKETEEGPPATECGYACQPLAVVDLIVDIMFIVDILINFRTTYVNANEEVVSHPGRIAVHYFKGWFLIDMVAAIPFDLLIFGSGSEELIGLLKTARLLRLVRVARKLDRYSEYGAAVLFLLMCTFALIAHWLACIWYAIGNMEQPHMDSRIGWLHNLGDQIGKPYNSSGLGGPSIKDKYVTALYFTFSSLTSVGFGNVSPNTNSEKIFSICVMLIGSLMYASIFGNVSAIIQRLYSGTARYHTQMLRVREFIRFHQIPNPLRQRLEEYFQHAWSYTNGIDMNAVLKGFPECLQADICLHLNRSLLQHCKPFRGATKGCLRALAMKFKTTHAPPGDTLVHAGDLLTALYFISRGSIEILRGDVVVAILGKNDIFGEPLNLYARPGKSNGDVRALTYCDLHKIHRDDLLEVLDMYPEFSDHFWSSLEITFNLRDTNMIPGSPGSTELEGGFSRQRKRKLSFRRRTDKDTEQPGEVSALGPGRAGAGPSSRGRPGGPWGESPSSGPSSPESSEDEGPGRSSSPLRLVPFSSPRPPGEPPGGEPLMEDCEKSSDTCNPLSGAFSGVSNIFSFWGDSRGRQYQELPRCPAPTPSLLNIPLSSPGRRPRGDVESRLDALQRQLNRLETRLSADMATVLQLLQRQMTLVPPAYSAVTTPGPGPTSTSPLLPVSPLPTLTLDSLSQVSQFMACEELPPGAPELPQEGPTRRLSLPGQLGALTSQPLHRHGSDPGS

Structure (SMILES) | hERG current change (%, negative = inhibition) at 1uM [%]
O=C(Nc1ccon1)C(Sc1ccccc1)c1ccccc1 (stereo not drawn) | -7.01
Cc1cnc(NC(=O)CN2CCCCC2)s1.[O-][Cl+3]([O-])([O-])O | 12.8
N#Cc1ccsc1NC(=O)CN1CCN(S(=O)(=O)c2ccccc2C(F)(F)F)CC1 | 1.78
O=C(NCc1nc2ccccc2[nH]1)C1=C[C@H](c2ccc3c(c2)OCO3)C[C@H](OCCCCO)O1 | 3.19
O=C(NCC(c1cccnc1)N1CCN(c2ccccc2F)CC1)c1cccc(Cl)c1 (stereo not drawn) | -10.5
COCc1nnc(NC(=O)c2c(-c3c(Cl)cccc3Cl)noc2C)s1 | 10
CCN1CCN(C(=O)/C=C/c2ccc([N+](=O)[O-])cc2)CC1 | -34.9
COC(=O)c1ccc(NC(=S)NCC2CC2)cc1 | 16
CC(C)c1ccc2c(c1)c(SC(C)(C)C)c(CC(C)(C)C(=O)O)n2Cc1ccc(Cl)cc1 | 5.14
Cc1nc2c(nnn2Cc2ccccc2)c(=O)[nH]1 | 13.1
CC(OC(=O)c1ccc(OCC2CCCO2)cc1)C(=O)N(C)Cc1ccccc1 (stereo not drawn) | -5.76
COc1cc(C(=O)OCC(C)=O)c([N+](=O)[O-])cc1OC | 18.9
O=C(CNC(=O)c1ccccc1Br)N/N=C/c1cccs1 | 9.59
O=C(O)COc1ccc(NC(=O)c2ccco2)cc1 | 0.749
COc1ccc(C(=O)N2CCN(C(=O)C3COc4ccccc4O3)CC2)cc1 (stereo not drawn) | 25.4
CSCCC(NC(=O)c1ccco1)C(=O)N1CCCC(C(F)(F)F)C1 (stereo not drawn) | -9.41
CCn1c(=O)c2cc(C(=O)Nc3ccccc3OC)sc2c2ccccc21 | 13.1
CC(C)COC(=O)c1ccc(NC(=O)C2C3CCC(C3)C2C(=O)O)cc1 (stereo not drawn) | 12.2
COc1ccc(NC(=O)CSCc2cc(=O)n3nc(C4CC4)sc3n2)cc1 | 9.01
COc1cc(OC)cc(C(=O)N2CCN(Cc3ccccc3[N+](=O)[O-])CC2)c1.O=C(O)C(=O)O | -7.12
O=C1CNC(=O)/C1=C/c1ccc(O)cc1 | 20.7
CN(Cc1ccc(Cl)cc1Cl)C(=O)CNC(=O)c1ccc2c(c1)OCO2 | 4.69

Structure (SMILES) | hERG current change (%, negative = inhibition) at 1uM [%]
O=C1CN=C(c2ccc(Br)cc2)c2oc3ccccc3c2N1 | 11.5
COc1ccc(O)c(CN2CCCC(C(=O)c3sccc3C)C2)c1 (stereo not drawn) | 25.8
Cl.O=C(CCCN1CCC(O)(c2cccc(C(F)(F)F)c2)CC1)c1ccc(F)cc1 | -80.9
CCOC(=O)c1cnc2ccc(OCC)cc2c1N(C)Cc1ccccc1 | -2.4
COc1cc(NC(=O)COC(=O)/C=C/c2c(C)nn(-c3ccc(F)cc3)c2Cl)cc(OC)c1 | 10.4
CCOC(=O)CN1NC2(CCCC(C)C2)NC1=S (stereo not drawn) | 15.1
Cc1ccc(NC(=S)NCCN(C2CCCCC2)C2CCCC2)cc1 | -10.5
C=CCSc1ncccc1C(=O)NCCc1ccccc1 | 17.2
COc1ccc(N(CC(=O)Nc2cccc(C(=O)O)c2)S(=O)(=O)c2c(C)noc2C)cc1 | -7.35
COc1ccc(CCC(=O)OC(C)C(=O)c2ccc(C)cc2)cc1 (stereo not drawn) | 6.03
CCOC(=O)Cc1ccc(NCc2ccc(Cl)cc2)cc1.Cl | 12.5
CCN1CCN(CCCNC(=O)Cn2cc3c(n2)CCCC3)CC1 | 8.32
O=C(CN1C(=O)COc2ccccc21)N1CCCc2ccccc21 | -5.12
CCCCCCC(CC(=O)NCc1cccnc1)CC(=O)NCc1cccnc1 | 7.33
CCOC(=O)CSc1cc(CS(=O)c2ccc(Cl)cc2)nc(-c2ccccc2)n1 (stereo not drawn) | 9.75
COc1ccccc1NC(=S)N(Cc1ccc(C(=O)O)cc1)Cc1ccc(OC)c(OC)c1 | -0.285
COc1ccc2nc(Nc3nc(C)c(C(C)=O)s3)sc2c1 | 2.68
O=C(Cn1[nH]c(=O)c2ccccc2c1=O)N1CCN(S(=O)(=O)c2ccc(Cl)cc2)CC1 | 4.3
COc1ccc(CN(Cc2ccc(OC)cc2)S(=O)(=O)c2ccc(-n3cnnn3)c(C)c2)cc1 | 5.82
CCOC(=O)c1sc(NC(=O)CSc2ncccn2)nc1C | 6.84
CCOC(=O)N1CCN(C(=O)C(=O)c2cn(CC(=O)N3CCCCCC3)c3ccccc23)CC1 | -2.57
Cc1ccc(C(=O)NCC(=O)OCC(=O)N2CCCc3ccccc32)cc1 | -4.81

Structure (SMILES) | hERG current change (%, negative = inhibition) at 1uM [%]
COc1ccc(/C=C/C(=O)NC(=S)NN2CCCCC2c2cccnc2)cc1 (stereo not drawn) | 7.31
CCOc1ccccc1/C=N/Nc1nc(C)cc(=O)[nH]1 | 7.76
CCn1c(C)c(C(C)=O)c(N2CCCCC2)nc1=S | 1.29
CC1CCCCN1CCCNC(=O)Cn1c(=O)c2cccn2c2ccccc21 (stereo not drawn) | 9.96
COc1ccc(NC(=O)C2CCN(S(=O)(=O)c3c(C)noc3C)CC2)cc1 | 14.1
CCOC(=O)c1ccccc1NC1c2ccccc2C(=O)N1C1CCN(C(=O)OCC)CC1 (stereo not drawn) | -10.2
N#CC1=C(N)Oc2c(c(=O)oc3ccccc23)C1c1ccccc1OC(=O)c1cccs1 (stereo not drawn) | 5.51
C=CCn1c(NC)cc(=O)n(C)c1=O | 13.5
O=C1c2ccccc2C2(c3ccccc3)N1CCN2C(=O)C(Cl)(Cl)Cl (stereo not drawn) | 9.11
O=C(Cn1c(-c2ccccn2)nc2ccccc21)N/N=C/c1cccnc1 | 1.91
O=C(NC1CCCc2ccccc21)c1ccccc1 (stereo not drawn) | 20.5
CN1CCN(S(=O)(=O)c2ccc(-c3ccc(Cl)cc3)cc2)CC1 | 5.93
CCOc1ccc(NC(=O)CCCN2C(=S)NC(C)(C)CC2C)cc1 (stereo not drawn) | 5.52
CCCn1c(O)c(N=Nc2ccc3ccccc3n2)c2ccccc21 | 22.1
O=C(Cn1c(=O)[nH]c2ccccc2c1=O)N1CCN(c2cccc(Cl)c2)CC1 | 8.49
COC(=O)c1cnn(-c2cc(Oc3cccc(C)c3)ncn2)c1N | 9.43
COc1ccccc1N/C(N)=N/c1nc(CSc2nc3ccccc3s2)cc(=O)[nH]1 | 9.23
CCOC(=O)C1CCCN(C(=O)CNC(=O)Cn2ccc3ccccc3c2=O)C1 (stereo not drawn) | 1.37
CCCc1cc(C(=O)Nc2ccn(Cc3ccc(C)cc3)n2)no1 | 2.17
Cc1ccc(/C=C/c2ccc(=O)n(Cc3ccccc3Cl)n2)cc1 | 6.56
Cc1cc(Br)cc(Br)c1OCC(=O)NNC(=O)CCC(=O)NCc1ccccc1 | 18.8
COc1ccccc1NS(=O)(=O)c1cc(N)ccc1N1CCCCC1 | 3.73

Structure (SMILES) | hERG current change (%, negative = inhibition) at 1uM [%]
CCN(CC)S(=O)(=O)c1cccc(-c2nnc(SCC(=O)c3cc(C)n(C)c3C)o2)c1 | 4.87
COc1cc(/C=N/Nc2ccc(F)cc2F)cc(OC)c1OC | 1.85
CCCc1cc(=O)[nH]c(SCC(=O)N2CCCc3ccccc32)n1 | 11.8
COc1ccccc1NC(=O)c1ccccc1S(=O)(=O)c1ccc([N+](=O)[O-])cc1 | 10.5
COc1ccc(/C=N/NC(=O)Nc2cccc3nsnc23)cc1OC | 5.82
CCC(C)c1ccc(NC(=O)COc2c(F)c(F)c(C(F)(F)F)c(F)c2F)cc1 (stereo not drawn) | -25.4
c1ccc2c(CSCCc3ccncc3)cccc2c1 | 3.43
COCCN1Cc2cccc(C(=O)NC(C)CCc3ccco3)c2C1=O (stereo not drawn) | 3.15
CCc1c(C(=O)Nc2ncn(Cc3cccc(C)c3)n2)csc1C | -2.33
C=CCOc1ccc(C2C(C(=O)c3ccco3)=C(O)C(=O)N2c2nnc(C)s2)cc1 (stereo not drawn) | 12.2
N#CNC(=Nc1ccccc1F)SCc1ccc(C(=O)O)cc1 | 2.33
O=C1NC(Cc2ccccc2)c2nc3cc(F)ccc3c(=O)n2-c2ccc(Cl)cc21 (stereo not drawn) | 16.1
Cn1cc(-c2nnnn2-c2cccc(C(F)(F)F)c2)c(C(F)(F)F)n1 | 3.49
Cc1ccccc1C(=O)c1cccn1CC(=O)NCc1ccco1 | 7.07
NC(=O)CC(NC(=O)c1ccc(Br)cc1)c1ccc(N2CCC(Br)CC2)c([N+](=O)[O-])c1 (stereo not drawn) | 2.36
Cc1cnc(NC(=O)COc2ccc3c(c2)CCC3)s1 | 7.35
Cc1nn(C)c(C)c1CS(=O)(=O)c1ccccc1 | 11.3
Cc1ccc(CSCC(=O)Nc2ccc(N3CCOCC3)cc2N2CCOCC2)cc1 | -3.89
CCn1c(C)[n+](CCCS(=O)(=O)[O-])c2cc(Cl)c(Cl)cc21 | 15.8
COc1cc(NC(=O)C(c2ccccc2)c2ccccc2)c(C(=O)O)cc1OC | 16.1
COc1cccc(NC(=O)C2CCCN2S(=O)(=O)c2ccc3c(c2)n(C)c(=O)c(=O)n3C)c1 (stereo not drawn) | 14.4
